The whole screen tested about 50,000 compounds, of which about 800 (1.6%) showed an effect of 50% or more. The list shows a part of the results.

The test has as its target Bcl-2-like protein 10 (Homo sapiens) (UniProt Q9HD36). Put plainly: TR3 peptide-Bcl-B binding displacers, biochemical primary FP assay, phenotype converters (AID 1240).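 Further: 0% = Bcl-B with tracer peptide and DMSO and 100% = tracer peptide lacking Bcl-B.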 The following applies: GST-Bcl-B / FITC-TR3 peptide fluorescence polarization; stronger effect = higher value; compound at 3.75 mg/L.
Sequence of UniProt Q9HD36 (Q9HD36 whole entry, looked up): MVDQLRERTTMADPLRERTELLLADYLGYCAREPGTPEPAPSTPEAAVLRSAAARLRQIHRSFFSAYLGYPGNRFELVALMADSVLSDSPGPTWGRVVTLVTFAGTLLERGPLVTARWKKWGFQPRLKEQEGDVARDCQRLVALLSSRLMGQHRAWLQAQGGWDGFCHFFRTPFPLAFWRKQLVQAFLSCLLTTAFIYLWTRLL
For `O=C1c2cccc([N+](=O)[O-])c2C(=O)N1c1ccc2[nH]c(=S)sc2c1`, the displacement is -9.2%.
Under `C=CCOC(=O)C1=C(C)NC(=S)NC1c1ccccc1OCC` (configuration not stated) stands 2.1%; under `CC(C)(C)CNC(=O)C(=O)NCCc1ccccc1`, 4.5%.
Under `CCOc1cc(/C=N/n2cnnc2)ccc1OCCOc1ccccc1C` stands -5.8%; under `COC(=O)c1ccc(C2C3=C(CC(C)(C)CC3=O)NC3=C2C(=O)CC(C)(C)C3)cc1`, -4.9%; under `COc1ccc2c(c1OC)C(=O)OC2CC(=O)c1cc(F)ccc1O` (configuration not stated), 1.5%.
With `CCc1ccccc1NC(=O)CN(c1ccc(Cl)cc1)S(C)(=O)=O`, the displacement amounted to 13.6%.
Under `O=C(Nc1ccccc1)N1CCN(C(=O)Nc2ccccc2)CC1` stands -0.7%; under `COc1ccc(C(=O)Nc2ccccc2C(=O)NC(C(=O)NCc2ccccc2)C(C)C)cc1` (configuration not stated), 5.1%; under `CCN(CC)c1ccc(C(=O)Nc2ccccc2C(F)(F)F)cc1`, 16.8%.
Take `CCOC(=O)C1=C(O)/C(=C\c2cccc3ccccc23)N=C1C`: the displacement is 10.8%.
Under `Cc1cccc(/C(N)=N/OC(=O)c2ccc(Br)cc2)c1` stands -6.1%; under `O=C(O)CCSc1nc2ccccc2n1Cc1ccccc1`, 3.1%.
Under `O=C(Nc1ccc(Cl)c(Cl)c1)Nc1nnc(Cc2ccc(F)cc2)s1` stands 7.6%; under `CC(C)(C)c1ccc(C(=O)Nc2sc3c(c2C(N)=O)CCCCCC3)cc1`, -6.1%; under `CCC(C)(C)C1CCc2c(sc(NC(=O)c3cnccn3)c2C(=O)OC)C1` (configuration not stated), 6.1%.
Under `COc1ccc(OC)c(NC(=S)NC(NC(=O)c2ccc(C)cc2)C(Cl)(Cl)Cl)c1` (configuration not stated) stands -3.8%.
With `Cc1ccc(SCCNC(=O)/C=C/c2ccccc2Cl)cc1`, the displacement was -11%.
`O=C(CCc1ccccc1)Nc1c(F)c(F)c(F)c(F)c1F`: the displacement is -1.5%.
Regarding `COc1ccc(CNC(=O)c2cnn3c(C(F)(F)F)cc(-c4ccccc4)nc23)cc1`, the displacement was -4.9%.
Turning to `CC(Oc1ccccc1)C(=O)N1CCC(Cc2ccccc2)CC1` (configuration not stated), the displacement was 3.1%.
Under `CNCC(O)COc1ccc(C)cc1C` (configuration not stated) stands -4.8%; under `O=C(NCc1ccc2c(c1)OCO2)c1ccc(F)cc1`, 11.2%; under `COc1ccc(NC(=O)COc2ccc(Br)cc2C(C)(C)C)c(OC)c1`, 6.6%.
Regarding `NC(=O)c1ccc(Cl)c(S(=O)(=O)N2CCOCC2)c1`, the displacement is -7.7%.
Under `O=C(NCCOc1ccc(F)cc1)c1ccccc1-c1ccccc1` stands 15.4%; under `CCc1c(-c2ccc(Cl)s2)nc2ccc(Br)cc2c1C(=O)O`, -2%; under `O=C(NCc1ccccc1)c1cc(-c2ccco2)nc2ccccc12`, 34.7%.
Under `CCc1ccc(OCCCCCn2ccnc2)cc1` stands 5.9%; under `COc1ccc(S(=O)(=O)Nc2ccc3c(c2)OCO3)cc1`, 6.5%; under `NC(=O)C1CCN(C(=O)Cc2ccc(Cl)cc2)CC1`, -1.7%.
Under `NC(=O)c1c(NC(=O)c2ccc(Br)o2)sc2c1CCCCC2` stands -1.5%; under `O=C1CSC(=S)N1c1ccccc1C(F)(F)F`, -0.7%; under `CCCCN1C(=O)/C(=C/c2cccc3ccccc23)SC1=S`, 3.1%.
As for `Cc1sc2nc(SCC(=O)NCCCn3ccnc3)[nH]c(=O)c2c1C`, the displacement is -7%.
Under `C=CCOc1ccc(/C=C2/SC(=O)NC2=O)cc1Br` stands -10.8%; under `COc1ccc(N(CC(=O)Nc2ccc(I)cc2)S(=O)(=O)c2ccccc2)cc1`, -2%; under `c1ccc2c(c1)nc(N1CCOCC1)c1nncn12`, 4.7%.
Under `c1ccc(Oc2cccc(CSc3nnc4c(n3)[nH]c3ccccc34)c2)cc1` stands 46.6%.
Under `CC(NC(=O)c1ccccc1)c1ccc(Cl)c(Cl)c1` (configuration not stated) stands -5.8%.
For the molecule `Cc1cccc(CC2CC(=O)N(c3ccc(/C=C/C(=O)O)cc3)C2=O)c1` (configuration not stated), the displacement amounted to 10%.
Consider `O=C(Nc1ccccc1)Nc1nnc(CSCc2ccc(Cl)cc2)s1`, for which the displacement was determined as 1.8%.
Under `Cc1nc(C=C2C(=O)C=Cc3ccccc32)c(O)o1` stands 2%; under `Cc1ccc(OCC(=O)N2CCC(C(N)=O)CC2)cc1`, -10.1%.
Under `O=C(Nc1ccc(S(=O)(=O)N2CCCCCC2)cc1)C(F)(F)F` stands 4.2%.
Under `COc1ccc2c(c1)nc(SCC(=O)c1ccc(OC)c(OC)c1)n2Cc1ccccc1` stands 6.5%; under `Cc1onc(-c2ccccc2Cl)c1C(=O)NCCNc1c(Cl)cccc1[N+](=O)[O-]`, 14.1%; under `CCC(=O)N1CCN(c2cc(N3CCCCC3)c(F)cc2[N+](=O)[O-])CC1`, -5.8%.
On to `CC(C)(C)NC(=O)c1nn2c(C(F)(F)F)cc(-c3ccccc3)nc2c1Br`, for which the displacement was determined as 13%.
Under `COc1ccccc1NC(=O)CCCC(=O)OCC(F)(F)C(F)F` stands 1%.
Consider `CCN(Cc1ccccc1)C(=O)c1ccc(SC)cc1OC`, for which the displacement was -7.7%.
In the case of `CC12CCCCC1C2C(=O)N/N=C\c1ccc(Cl)cc1Cl` (configuration not stated), the displacement was 19.4%.
In the case of `COc1cc(Cl)cc(/C=C2/C(=O)NC(=O)N(c3ccc(C)cc3)C2=O)c1O`, the displacement is -12.7%.
Under `CCCCOc1ccc(NC(=O)CSc2nnnn2-c2ccccc2)cc1` stands 11.6%; under `Cc1cc(Cl)ccc1NC(=O)c1cccc([N+](=O)[O-])c1C`, -4.1%.
Under `Cc1ccc2oc(-c3cc(N)ccc3Cl)nc2c1` stands -3%.
Under `Cc1cccc(C(=O)Nc2cc(C)on2)c1` stands -1.2%; under `Cc1noc([N+](=O)[O-])c1C=Cc1c(C)nn(-c2ccccc2)c1C`, -4.6%; under `Cc1ccc(-c2noc(-c3cccc([N+](=O)[O-])c3C)n2)cc1`, 6.9%.
As to `CCCc1ccc(-c2nc(-c3cc(OC)c(OC)c(OC)c3)no2)cc1`, the displacement is -7%.
Under `Cc1cccc(C)c1NC(=O)CC(C)c1ccccc1` (configuration not stated) stands 5.5%.
Consider `CCc1ccc(N2CC(C(=O)Nc3cccc(C(F)(F)F)c3)CC2=O)cc1` (configuration not stated), for which the displacement turned out to be 5.6%.
Under `CCOC(=O)c1sc(NC(=O)COc2cc(Cl)ccc2Cl)c(C(=O)OCC)c1C` stands 0.4%.
With `CSc1ccc(/C=N/NC(=O)COc2ccccc2C)cc1`, the displacement turned out to be 12.6%.
Under `CCN(CC)C(=O)c1sc(NC(=O)CCCOc2ccc(Cl)cc2C)c(C(=O)OC)c1C` stands 4%; under `COC(=O)C(C(=O)OC)C(=O)c1ccc(C)cc1`, -13.8%.
Consider `Nc1nnc(/C=C/c2ccccc2)s1`, for which the displacement was 6.2%.
Under `CCSc1nnc(NC(=O)c2ccc(Br)cc2)s1` stands -6.2%; under `O=S(Cc1ccc(Cl)cc1)CC(O)COc1ccccc1` (configuration not stated), 0.3%; under `O=C(O)CC1S/C(=N/N=C/c2cccc(O)c2)NC1=O` (configuration not stated), -34.7%.
Under `COc1ccc(C2c3c(-c4ccccc4)n[nH]c3C(=O)N2c2ccccc2)cc1` (configuration not stated) stands -3.9%.
In the case of `O=S(=O)([O-])CCC[n+]1cnc2ncc3c(n21)/C(=C/c1ccccc1)CCC3`, the displacement is -3.8%.
With `O=C(Nc1ccccc1C(=O)Nc1ccc(Br)cn1)c1ccccc1`, the displacement is -7.9%.
For `CC1(C)Cc2c(sc3nc(SCCc4ccccc4)n(CCc4ccccc4)c(=O)c23)CO1`, the displacement was -2.5%.
Under `COc1ccccc1OCCn1cc(/C=C2/SC(=S)N(Cc3ccccc3)C2=O)c2ccccc21` stands 112%; under `C=C(C)C1CC=C(C)/C(=N/NC(N)=O)C1` (configuration not stated), -7.9%.
Under `Cc1cc(Cl)ccc1OCC(=O)N1CCN(c2ccccn2)CC1` stands -8.1%; under `CC1=C(C(=O)OCCC#N)C(c2cccc(Oc3ccccc3)c2)NC(=O)N1` (configuration not stated), -0.1%.
As for `Cc1ccc(N2C(=O)CC(Sc3nc4ccccc4s3)C2=O)cc1Cl` (configuration not stated), the displacement was -5.3%.
Under `COc1ccc(C(=O)Nc2nnc(Cc3ccccc3)s2)cc1OC` stands 1.2%.
Under `Cc1ccc(C)c(C(=O)CN2C3=NCCN3c3ccccc32)c1` stands -3.3%; under `COCCNC(=O)c1ccccc1[N+](=O)[O-]`, 11.6%.
Under `COC(=O)c1cccc(Nc2ncnc3ccc(Br)cc23)c1` stands -9.9%; under `COc1cccc(NCCC(=O)c2cccc([N+](=O)[O-])c2)c1`, 8%.
For `COc1ccc(CCNC(=O)CN(c2ccc(C)cc2)S(=O)(=O)c2ccc(F)cc2)cc1OC`, the displacement was -6.1%.
`COC(=O)c1c(NC(=O)CCCOc2ccccc2)sc2c1C(C(=O)OC)CC2` (configuration not stated): the displacement was -1.2%.
Under `O=S(=O)(O)c1nc2ccccc2n1-c1ccccc1` stands -9.1%; under `CCOc1ccc(C2=C/C(=C/c3ccc(C)o3)C(=O)O2)cc1`, 10.2%; under `COc1ccc(C2Nc3cccc4cccc(c34)N2)cc1Br`, 13%.
Under `O=C(CCN1C(=O)/C(=C/c2ccc(F)cc2)SC1=S)Nc1ncc(Cc2ccc(Cl)cc2)s1` stands 10.3%.
Under `C=CCc1cccc(/C=N/NC(=O)c2cc(C(C)(C)C)[nH]n2)c1O` stands -19.8%.
Take `O=[N+]([O-])c1ccc(N/C(=N/S(=O)(=O)c2ccccc2)c2ccccc2)cc1`: the displacement came to 10.8%.
Regarding `N#C/C(=C/C=C/c1ccccc1)c1nc(-c2cc3c(ccc4ccccc43)oc2=O)cs1`, the displacement is -7.3%.
As to `Cc1cc(OCC(=O)NNC(=O)c2cccc(Cl)c2)ccc1Br`, the displacement was -13.4%.
Under `COc1cccc2cc(C(=O)Nc3ccc(S(N)(=O)=O)cc3)c(=O)oc12` stands -8%; under `O=C(N=Nc1c(O)n(CN2CCOCC2)c2ccccc12)c1ccccc1Cl`, -3.7%.
For `Cc1cc(C)nc(/N=C(\N)Nc2cc(C(F)(F)F)ccc2Cl)n1`, the displacement worked out at 7.1%.
Under `COCCNC(=O)c1ccc(Cl)c([N+](=O)[O-])c1` stands 2.8%.
`Cc1[nH]nc(N2CCCCC2)c1[N+](=O)[O-]`: the displacement worked out at 2.6%.
Under `CCOC(=O)C1=C(C)N=c2s/c(=C\c3ccc(NC(C)=O)cc3)c(=O)n2C1c1ccc(OC)cc1` (configuration not stated) stands 116%; under `Cc1cc2nc(SCc3ccccc3Cl)[nH]c2cc1C`, 3.4%.
Under `CCC(CO)N=Cc1ccc(Cl)cc1` (configuration not stated) stands 11.2%; under `CNC(=O)CCC(=O)Nc1ccc(C)cc1C`, 12.8%.
Under `CN1C(=O)NC(=O)/C(=C/c2cc(Cl)ccc2O)C1=O` stands -16.6%.
In the case of `O=C1c2ccccc2C(=O)N1c1ncc(Cc2ccc(Br)cc2)s1`, the displacement was -1%.
Under `CCOc1ccc(NC(=O)c2ccc(S(=O)(=O)N(CC)CC)cc2)c([N+](=O)[O-])c1` stands 4%; under `COc1ccc(NC(=O)Cc2ccc(Br)cc2)cc1`, -3.1%; under `Cc1ccc(S(=O)(=O)N2CCN(C(=O)COc3ccc(Cl)cc3)CC2)cc1`, -15.1%.
As for `O=C1CCCc2oc3ccc(NS(=O)(=O)c4ccc(F)cc4)cc3c21`, the displacement was determined as 0.3%.
Under `COc1ccc(C(=O)Nc2ccc(NC(=O)c3ccc(Br)cc3)cc2)cc1` stands -1.2%.
Under `COc1ccc(/C=C2\C=C(c3ccc(Br)cc3)OC2=O)cc1[N+](=O)[O-]` stands 70%; under `C=CCN1C(=O)/C(=C\c2cc(Br)ccc2OCC)C(=O)NC1=S`, -11.2%.

The values are drawn from PubChem BioAssay AID1240 (Sanford-Burnham Center for Chemical Genomics, 2008).
